Experimental data taken from the supplement of paper PMC8728848.
The other results are listed elsewhere or left out.

Experiments:
Assay in all cases: glycan array binding signal (z-score within array); higher = stronger binding
Settings in all cases: glycan notation: IUPAC condensed, linker removed
[1] = biological target: Man(a1-2)Man(a1-3)[Man(a1-2)Man(a1-6)]Man
Procedure, shortened: (§1)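 The Consortium for Functional Glycomics database supplied 3228 glycan arrays, of which those lacking an available protein sequence were dropped. The binding signal, a within-array Z-score, was averaged across arrays of the same protein sequence and across linkers. Negative scores can be read as non-binding.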

[2] = biological target: Man(a1-2)Man(a1-3)[Man(a1-2)Man(a1-6)]Man(a1-6)[Man(a1-2)Man(a1-2)Man(a1-3)]Man
Procedure, shortened: as §1

[3] = biological target: Man(a1-2)Man(a1-3)[Man(a1-2)Man(a1-6)]Man(a1-6)[Man(a1-2)Man(a1-2)Man(a1-3)]Man(b1-4)GlcNAc(b1-4)GlcNAc
Procedure, shortened: as §1

[4] = biological target: Man(a1-2)Man(a1-3)[Man(a1-6)]Man(a1-6)[Man(a1-2)Man(a1-3)]Man(b1-4)GlcNAc(b1-4)GlcNAc
Procedure, shortened: as §1

[5] = biological target: Man(a1-2)Man(a1-6)[Man(a1-3)]Man(a1-6)[Man(a1-2)Man(a1-2)Man(a1-3)]Man
Procedure, shortened: as §1

[6] = biological target: Man(a1-2)Man(a1-6)[Man(a1-3)]Man(a1-6)[Man(a1-2)Man(a1-2)Man(a1-3)]Man(b1-4)GlcNAc(b1-4)GlcNAc
Procedure, shortened: as §1

Man(a1-3)[Man(a1-6)]Man = biological target: Man(a1-3)[Man(a1-6)]Man
Procedure, shortened: as §1

[7] = biological target: Man(a1-3)[Man(a1-6)]Man(a1-6)[Man(a1-2)Man(a1-3)]Man(b1-4)GlcNAc(b1-4)GlcNAc
Procedure, shortened: as §1

[8] = biological target: Man(a1-3)[Man(a1-6)]Man(a1-6)[Man(a1-3)]Man
Procedure, shortened: as §1

[9] = biological target: Man(a1-3)[Man(a1-6)]Man(a1-6)[Man(a1-3)]Man(b1-4)GlcNAc(b1-4)GlcNAc
Procedure, shortened: as §1

[10] = biological target: Man(a1-3)[Man(a1-6)]Man(b1-4)GlcNAc(b1-4)GlcNAc
Procedure, shortened: as §1

[11] = biological target: Man(a1-3)[Man(a1-6)]Man(b1-4)GlcNAc(b1-4)[Fuc(a1-6)]GlcNAc
Procedure, shortened: as §1

Man(a1-6)Man = biological target: Man(a1-6)Man
Procedure, shortened: as §1

Man(b1-4)GlcNAc = biological target: Man(b1-4)GlcNAc
Procedure, shortened: as §1

MurNAc(b1-4)GlcNAc = biological target: MurNAc(b1-4)GlcNAc
Procedure, shortened: as §1

Neu5Ac(a2-3)Gal = biological target: Neu5Ac(a2-3)Gal
Procedure, shortened: as §1

[12] = biological target: Neu5Ac(a2-3)Gal(b1-3)GalNAc
Procedure, shortened: as §1

[13] = biological target: Neu5Ac(a2-3)Gal(b1-3)GalNAc(b1-3)Gal(a1-4)Gal(b1-4)Glc
Procedure, shortened: as §1

[14] = biological target: Neu5Ac(a2-3)Gal(b1-3)GalNAc(b1-4)Gal(b1-4)Glc
Procedure, shortened: as §1

[15] = biological target: Neu5Ac(a2-3)Gal(b1-3)GalNAc(b1-4)[Neu5Ac(a2-3)]Gal(b1-4)Glc
Procedure, shortened: as §1

[16] = biological target: Neu5Ac(a2-3)Gal(b1-3)GalNAc(b1-4)[Neu5Ac(a2-8)Neu5Ac(a2-3)]Gal(b1-4)Glc
Procedure, shortened: as §1

[17] = biological target: Neu5Ac(a2-3)Gal(b1-3)GalNAc6S
Procedure, shortened: as §1

[18] = biological target: Neu5Ac(a2-3)Gal(b1-3)GlcNAc
Procedure, shortened: as §1

[19] = biological target: Neu5Ac(a2-3)Gal(b1-3)GlcNAc(b1-2)Man
Procedure, shortened: as §1

[20] = biological target: Neu5Ac(a2-3)Gal(b1-3)GlcNAc(b1-2)Man(a1-3)[GlcNAc(b1-4)][Neu5Ac(a2-3)Gal(b1-3)GlcNAc(b1-2)Man(a1-6)]Man(b1-4)GlcNAc(b1-4)GlcNAc
Procedure, shortened: as §1

[21] = biological target: Neu5Ac(a2-3)Gal(b1-3)GlcNAc(b1-2)Man(a1-3)[Neu5Ac(a2-3)Gal(b1-3)GlcNAc(b1-2)Man(a1-6)]Man(b1-4)GlcNAc(b1-4)GlcNAc
Procedure, shortened: as §1

[22] = biological target: Neu5Ac(a2-3)Gal(b1-3)GlcNAc(b1-2)[Neu5Ac(a2-3)Gal(b1-3)GlcNAc(b1-4)]Man(a1-6)[Neu5Ac(a2-3)Gal(b1-3)GlcNAc(b1-2)Man(a1-3)]Man(b1-4)GlcNAc(b1-4)GlcNAc
Procedure, shortened: as §1

[23] = biological target: Neu5Ac(a2-3)Gal(b1-3)GlcNAc(b1-3)Gal(b1-3)GlcNAc
Procedure, shortened: as §1

[24] = biological target: Neu5Ac(a2-3)Gal(b1-3)GlcNAc(b1-3)Gal(b1-4)GlcNAc
Procedure, shortened: as §1

[25] = biological target: Neu5Ac(a2-3)Gal(b1-3)GlcNAc(b1-3)GalNAc
Procedure, shortened: as §1

[26] = biological target: Neu5Ac(a2-3)Gal(b1-3)GlcNAc(b1-6)GalNAc
Procedure, shortened: as §1

[27] = biological target: Neu5Ac(a2-3)Gal(b1-3)GlcNAc6S
Procedure, shortened: as §1

[28] = biological target: Neu5Ac(a2-3)Gal(b1-3)[Fuc(a1-4)]GlcNAc
Procedure, shortened: as §1

[29] = biological target: Neu5Ac(a2-3)Gal(b1-3)[Fuc(a1-4)]GlcNAc(b1-3)Gal(b1-3)[Fuc(a1-4)]GlcNAc
Procedure, shortened: as §1

[30] = biological target: Neu5Ac(a2-3)Gal(b1-3)[Fuc(a1-4)]GlcNAc(b1-3)Gal(b1-4)[Fuc(a1-3)]GlcNAc
Procedure, shortened: as §1

[31] = biological target: Neu5Ac(a2-3)Gal(b1-3)[GlcNAc(b1-6)]GalNAc
Procedure, shortened: as §1

[32] = biological target: Neu5Ac(a2-3)Gal(b1-3)[Neu5Ac(a2-6)]GalNAc
Procedure, shortened: as §1

B1: DC-ASGPR L+GEE (Homo sapiens) (protein)
chain: MTRTYENFQYLENKVKVQGFKNGPLPLQSLLQRLRSGPCHLLLSLGLGLLLLVIICVVGFQNSKFQRDLVTLRTDFSNFTSNTVAEIQALTSQGSSLEETIASLKAEVEGFKQERQAGVSELQEHTTQKAHLGHCPHCPSVCVPVHSEMLLRVQQLVQDLKKLTCQVATLNNNGEEASTEGTCCPVNWVEHQDSCYWFSHSGMSWAEAEKYCQLKNAHLVVINSREEQNFVQKYLGSAYTWMGLSDPEGAWKWVDGTDYATGFQNWKPGQPDDWQGHGLGGGEDCAHFHPDGRWNDDVCQRPYHWVCEAGLGQTSQESH
glycan array binding signal (z-score) [1]: -0.348
glycan array binding signal (z-score) [2]: 0.008
glycan array binding signal (z-score) [3]: -0.745
glycan array binding signal (z-score) [4]: -0.13
glycan array binding signal (z-score) [5]: -0.688
glycan array binding signal (z-score) [6]: -0.079
glycan array binding signal (z-score) (Man(a1-3)[Man(a1-6)]Man): -0.211
glycan array binding signal (z-score) [7]: 0.017
glycan array binding signal (z-score) [8]: -0.404
glycan array binding signal (z-score) [9]: -0.63
glycan array binding signal (z-score) [10]: -0.574
glycan array binding signal (z-score) [11]: 0.272
glycan array binding signal (z-score) (Man(a1-6)Man): -0.554
glycan array binding signal (z-score) (Man(b1-4)GlcNAc): -0.179
glycan array binding signal (z-score) (MurNAc(b1-4)GlcNAc): -0.441
glycan array binding signal (z-score) (Neu5Ac(a2-3)Gal): -0.812
glycan array binding signal (z-score) [12]: -0.017
glycan array binding signal (z-score) [13]: -0.449
glycan array binding signal (z-score) [14]: -0.577
glycan array binding signal (z-score) [15]: -0.263
glycan array binding signal (z-score) [16]: -0.319
glycan array binding signal (z-score) [17]: 0.811
glycan array binding signal (z-score) [18]: -0.416
glycan array binding signal (z-score) [19]: -0.732
glycan array binding signal (z-score) [20]: 0.348
glycan array binding signal (z-score) [21]: 0.432
glycan array binding signal (z-score) [22]: -0.09
glycan array binding signal (z-score) [23]: -0.735
glycan array binding signal (z-score) [24]: -0.48
glycan array binding signal (z-score) [25]: 0.286
glycan array binding signal (z-score) [26]: 6.64
glycan array binding signal (z-score) [27]: -0.488
glycan array binding signal (z-score) [28]: -0.265
glycan array binding signal (z-score) [29]: -0.039
glycan array binding signal (z-score) [30]: -0.537
glycan array binding signal (z-score) [31]: -0.297
glycan array binding signal (z-score) [32]: 0.342
